From the supplement of paper PMC10441789
This is one part of the list. Antibody binding of pooled human sera (four to six donors per pool; dilution not stated) to peptides of the Trypanosoma cruzi antigen TSSA on microarrays. Quantile-normalised fluorescence in arbitrary units, mean of duplicate arrays; higher = more binding. No active / inactive call. The uninfected pools are read here as the healthy donors of the same country. The strongest signals lie near the top of the scale (about 60,000).

Assays:
Assay in all cases: antibody binding signal (normalised fluorescence) (arbitrary fluorescence units); higher = stronger serum antibody binding to peptide
[1] = test system: pooled sera of chronic Chagas disease patients, Argentina
Method: (§1)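 Microarray of 15-residue peptides over residues 30-55 of Trypanosoma cruzi TSSAII, each with 1 to 10 substitutions at naturally variable positions, probed with one serum pool per country.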

[2] = test system: pooled sera of chronic Chagas disease patients, Bolivia
Method: as §1

[3] = test system: pooled sera of chronic Chagas disease patients, Brazil
Method: as §1

[4] = test system: pooled sera of chronic Chagas disease patients, Colombia
Method: as §1

[5] = test system: pooled sera of chronic Chagas disease patients, Mexico
Method: as §1

[6] = test system: pooled sera of chronic Chagas disease patients, USA
Method: as §1

[7] = test system: pooled sera of uninfected people, Argentina
Method: as §1

[8] = test system: pooled sera of uninfected people, Bolivia
Method: as §1

[9] = test system: pooled sera of uninfected people, Brazil
Method: as §1

[10] = test system: pooled sera of uninfected people, Colombia
Method: as §1

[11] = test system: pooled sera of uninfected people, Mexico
Method: as §1

[12] = test system: pooled sera of uninfected people, USA
Method: as §1

Sequence: GKENKPAAGETPSQP
- antibody binding signal [1]: 7370
- antibody binding signal [2]: 3530
- antibody binding signal [3]: 35100
- antibody binding signal [4]: 9970
- antibody binding signal [5]: 10800
- antibody binding signal [6]: 14000
- antibody binding signal [7]: 855
- antibody binding signal [8]: 428
- antibody binding signal [9]: 161
- antibody binding signal [10]: 229
- antibody binding signal [11]: 327
- antibody binding signal [12]: 144

Sequence: PSGTDKKAATGGTPS
- antibody binding signal [1]: 1980
- antibody binding signal [2]: 485
- antibody binding signal [3]: 5340
- antibody binding signal [4]: 5280
- antibody binding signal [5]: 2150
- antibody binding signal [6]: 2150
- antibody binding signal [7]: 263
- antibody binding signal [8]: 411
- antibody binding signal [9]: 362
- antibody binding signal [10]: 631
- antibody binding signal [11]: 593
- antibody binding signal [12]: 211

Sequence: GTEKKAATGGAPSQS
- antibody binding signal [1]: 1070
- antibody binding signal [2]: 203
- antibody binding signal [3]: 704
- antibody binding signal [4]: 835
- antibody binding signal [5]: 1700
- antibody binding signal [6]: 1610
- antibody binding signal [7]: 469
- antibody binding signal [8]: 956
- antibody binding signal [9]: 116
- antibody binding signal [10]: 781
- antibody binding signal [11]: 113
- antibody binding signal [12]: 165

Sequence: KDKKPAAGGAPSQPG
- antibody binding signal [1]: 168
- antibody binding signal [2]: 214
- antibody binding signal [3]: 1840
- antibody binding signal [4]: 1610
- antibody binding signal [5]: 153
- antibody binding signal [6]: 170
- antibody binding signal [7]: 92.6
- antibody binding signal [8]: 76.4
- antibody binding signal [9]: 132
- antibody binding signal [10]: 81.6
- antibody binding signal [11]: 75.4
- antibody binding signal [12]: 106

Sequence: EKKTATGGAPSQSGA
- antibody binding signal [1]: 1480
- antibody binding signal [2]: 252
- antibody binding signal [3]: 980
- antibody binding signal [4]: 2830
- antibody binding signal [5]: 1050
- antibody binding signal [6]: 811
- antibody binding signal [7]: 338
- antibody binding signal [8]: 704
- antibody binding signal [9]: 112
- antibody binding signal [10]: 130
- antibody binding signal [11]: 202
- antibody binding signal [12]: 617

Sequence: GKEKKAATGGAPSPP
- antibody binding signal [1]: 1450
- antibody binding signal [2]: 182
- antibody binding signal [3]: 288
- antibody binding signal [4]: 912
- antibody binding signal [5]: 2030
- antibody binding signal [6]: 2020
- antibody binding signal [7]: 252
- antibody binding signal [8]: 145
- antibody binding signal [9]: 95.4
- antibody binding signal [10]: 285
- antibody binding signal [11]: 98.4
- antibody binding signal [12]: 120

Sequence: PPSGKEKKPATGEAP
- antibody binding signal [1]: 43800
- antibody binding signal [2]: 14000
- antibody binding signal [3]: 42200
- antibody binding signal [4]: 1810
- antibody binding signal [5]: 5670
- antibody binding signal [6]: 28100
- antibody binding signal [7]: 1160
- antibody binding signal [8]: 1110
- antibody binding signal [9]: 170
- antibody binding signal [10]: 472
- antibody binding signal [11]: 151
- antibody binding signal [12]: 331

Sequence: TEKKTATGEAPSPSG
- antibody binding signal [1]: 11800
- antibody binding signal [2]: 27200
- antibody binding signal [3]: 12500
- antibody binding signal [4]: 387
- antibody binding signal [5]: 480
- antibody binding signal [6]: 21800
- antibody binding signal [7]: 208
- antibody binding signal [8]: 162
- antibody binding signal [9]: 244
- antibody binding signal [10]: 137
- antibody binding signal [11]: 191
- antibody binding signal [12]: 222

Sequence: GKDNKTATGGTPSQS
- antibody binding signal [1]: 370
- antibody binding signal [2]: 329
- antibody binding signal [3]: 333
- antibody binding signal [4]: 2280
- antibody binding signal [5]: 905
- antibody binding signal [6]: 815
- antibody binding signal [7]: 335
- antibody binding signal [8]: 125
- antibody binding signal [9]: 131
- antibody binding signal [10]: 167
- antibody binding signal [11]: 171
- antibody binding signal [12]: 154

Sequence: GKEKKPAAGGTPSPS
- antibody binding signal [1]: 2870
- antibody binding signal [2]: 207
- antibody binding signal [3]: 268
- antibody binding signal [4]: 2460
- antibody binding signal [5]: 1710
- antibody binding signal [6]: 1520
- antibody binding signal [7]: 92.1
- antibody binding signal [8]: 84.1
- antibody binding signal [9]: 551
- antibody binding signal [10]: 104
- antibody binding signal [11]: 74.8
- antibody binding signal [12]: 284

Sequence: NKAAAGGTPSPPGAS
- antibody binding signal [1]: 305
- antibody binding signal [2]: 284
- antibody binding signal [3]: 2040
- antibody binding signal [4]: 3410
- antibody binding signal [5]: 269
- antibody binding signal [6]: 1160
- antibody binding signal [7]: 628
- antibody binding signal [8]: 1030
- antibody binding signal [9]: 1570
- antibody binding signal [10]: 777
- antibody binding signal [11]: 202
- antibody binding signal [12]: 1620

Sequence: TEKKPAAGGTPSPPG
- antibody binding signal [1]: 1260
- antibody binding signal [2]: 182
- antibody binding signal [3]: 302
- antibody binding signal [4]: 7620
- antibody binding signal [5]: 616
- antibody binding signal [6]: 1990
- antibody binding signal [7]: 140
- antibody binding signal [8]: 275
- antibody binding signal [9]: 2180
- antibody binding signal [10]: 238
- antibody binding signal [11]: 242
- antibody binding signal [12]: 1180

Sequence: KKTAAGETPSQSGAS
- antibody binding signal [1]: 261
- antibody binding signal [2]: 338
- antibody binding signal [3]: 733
- antibody binding signal [4]: 339
- antibody binding signal [5]: 548
- antibody binding signal [6]: 792
- antibody binding signal [7]: 281
- antibody binding signal [8]: 170
- antibody binding signal [9]: 94.9
- antibody binding signal [10]: 230
- antibody binding signal [11]: 180
- antibody binding signal [12]: 341
